Test results as given in patent US20260209374A1 (ENOSI THERAPEUTICS, published 2026).

Columns and labels:
[1] = biological target: T1, extracellular domain of TNFR-1 (Example 4) (UniProt P19438 30-211, limits assumed); assay: SPR (Biacore method)
T1 construct: extracellular domain; also called TNFR1 extracellular domain
T1 sequence (looked up): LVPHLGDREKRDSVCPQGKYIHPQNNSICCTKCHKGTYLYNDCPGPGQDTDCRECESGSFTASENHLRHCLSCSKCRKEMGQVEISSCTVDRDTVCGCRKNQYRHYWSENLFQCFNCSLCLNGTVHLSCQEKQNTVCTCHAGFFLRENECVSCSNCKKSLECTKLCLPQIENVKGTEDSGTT

[2] = biological target: T2, TNFR1 on the cells of the TNF-dependent bioassays (THP1 cells in Examples 4 and 6) (human, UniProt P19438 30-455); assay: cell-based or functional assay
T2 sequence: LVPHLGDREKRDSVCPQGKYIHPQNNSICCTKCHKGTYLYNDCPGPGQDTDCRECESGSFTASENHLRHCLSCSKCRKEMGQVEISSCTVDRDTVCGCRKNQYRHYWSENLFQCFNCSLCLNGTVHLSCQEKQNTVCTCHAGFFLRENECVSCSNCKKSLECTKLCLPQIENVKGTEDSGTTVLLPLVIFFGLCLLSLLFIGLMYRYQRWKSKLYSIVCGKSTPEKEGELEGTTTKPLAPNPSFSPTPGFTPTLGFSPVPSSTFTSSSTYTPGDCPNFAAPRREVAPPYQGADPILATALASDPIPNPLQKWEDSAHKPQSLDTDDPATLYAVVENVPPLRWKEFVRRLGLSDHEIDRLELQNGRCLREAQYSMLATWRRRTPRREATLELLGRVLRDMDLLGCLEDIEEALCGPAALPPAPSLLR

human soluble TNFR1 = biological target: T3, human soluble TNFR1 (human, UniProt P19438 30-211); assay: SPR; VHH-Fc captured by anti-human IgG (Fc) antibody on CM5 sensor chip, human soluble TNFR1 as analyte
T3 construct: also called hTNFR1; hTNFR-1
T3 sequence: T1 sequence (looked up)
Excerpt: CM5 sensor chip (Cytiva #BR100530) was coated with an anti-human IgG (Fc) antibody (Cytiva #29234600) to capture the EN1206-BV and EN1208-BV. The human soluble TNFR1 was used as analyte for binding flow.

human soluble TNFR2 = biological target: T4, human soluble TNFR2 (human, UniProt P20333 23-257); assay: SPR; VHH-Fc captured by anti-human IgG (Fc) antibody on CM5 sensor chip, TNFR2 as analyte
T4 construct: also called hTNFR2; TNF receptor type 2
T4 sequence: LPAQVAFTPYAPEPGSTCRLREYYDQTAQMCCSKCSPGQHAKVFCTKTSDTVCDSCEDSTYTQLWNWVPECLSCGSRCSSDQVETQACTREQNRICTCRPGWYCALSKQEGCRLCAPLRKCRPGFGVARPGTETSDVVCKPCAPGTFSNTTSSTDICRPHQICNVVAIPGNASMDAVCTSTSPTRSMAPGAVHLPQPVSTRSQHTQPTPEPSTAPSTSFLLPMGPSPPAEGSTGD

B1: Vhh-1 (VHH)
VHH: EVQLLESGGGLVQPGGSLRLSCAASGFTFDKYSMGWVRQAPGKGLEWVSQISDTADRTYYAH[about 20 residues cut from this listing]MNSLRAEDTAVYYCAIYTGRWVPFEYWGQGTLVTVSS
notes: Single chain expressed in CHO cells; also called DOM1h-574-208; Dom 1h-574-208
Kd [1]: 0.43 nM
TNF Dependent Bioassay (IC50): IL-8 [2]: 500 nM

B2: EN-1208-Fc-BV (Fc fusion)
chain: EVQLLESGGGLVQPGGSLRLSCAASGFTFDKYSMGWVRQAPGKGLEWVSQISDTADRTYYAH[about 20 residues cut from this listing]MNSLRAEDTAVYYCAIYTGRWVPFEYWGQGTLVTVSSDKTHTCPPCPAPEAAGGPSVFLFPPKPKDTLYITREPEVTCVVVDVSHEDPEVKFNWYVDGVEVHNAKTKPREEQYNSTYRVVSVLTVLHQDWLNGKEYKCKVSNKALGAPIEKTISKAKGQPREPQVYTLPPSRDELTKNQVSLTCLVKGFYPSDIAVEWESNGQPENNYKTTPPVLDSDGSFFLYSKLTVDKSRWQQGNVFSCSVMHEALHNHYTQKSLSLSPGK
notes: Homodimeric, bivalent; also called EN1208-BV; EN1208-bv
Kd (human soluble TNFR1): 224 nM
fold poorer affinity (KD) than EN1206-BV (human soluble TNFR1): ~100 fold
binding result (human soluble TNFR2): no binding
